The source of these data is the antibiotic and cytotoxicity screens of Wong et al. (2023).

Some of the results follow.

The experiment has as its system S. aureus RN4220. Nature of the experiment: growth inhibition call (relative growth <= 0.2). To be noted: 50 µM.
Consider `C[C@H](CO)N1C[C@H](C)[C@@H](CN(C)C(=O)Cc2ccccc2)OCCCC[C@H](C)Oc2ccc(NS(=O)(=O)c3ccc(F)cc3)cc2C1=O`, for which the growth inhibition call is “inactive”.
As to `Clc1nc(-c2ccccn2)nc2scc(-c3ccccc3)c12`, the growth inhibition call is “inactive”.
Next, `CO[C@@H](CN(C)S(=O)(=O)c1ccc(Cl)cc1)[C@H](C)CN([C@H](C)CO)S(=O)(=O)c1cccc(Cl)c1`: “inactive”; `COc1ccc(S(=O)(=O)N(C)C[C@@H]2Oc3c(cccc3N(C)C)C(=O)N([C@@H](C)CO)C[C@H]2C)cc1`: “inactive”; `C[C@H]1CN([C@@H](C)CO)C(=O)c2cc(NS(C)(=O)=O)ccc2O[C@@H]1CN(C)C(=O)Nc1ccc(F)cc1`: “inactive”.
For `C[C@@H]1CCCCO[C@H](CN(C)Cc2ccccc2)[C@H](C)CN([C@H](C)CO)C(=O)c2cc(NC(=O)Nc3ccc4c(c3)OCO4)ccc2O1`, the growth inhibition call was “inactive”.
Take `COc1ccc(S(=O)(=O)N(C)C[C@@H]2Oc3c(cccc3N(C)C)C(=O)N([C@H](C)CO)C[C@H]2C)cc1`: the growth inhibition call is “inactive”.
Next, `CSc1scc(-c2cc(Cl)cc(Cl)c2)c1C#N`: “inactive”; `C[C@H](CO)N1C[C@H](C)[C@H](CN(C)C(=O)c2cccc(F)c2)Oc2cc(C#CC3CC3)ccc2S1(=O)=O`: “inactive”; `COCC(=O)Nc1ccc2c(c1)C(=O)N(C)C[C@H](OC)[C@H](C)CN(C(=O)Cc1cccnc1)[C@@H](C)CO2`: “inactive”.
With `CC(=O)c1c(O)cc(O)cc1O` the entry was “inactive”; with `CCCCc1cc(CCCC)n2nc(-c3ccccc3)cc2n1`, “inactive”; with `C[C@@H]1CN([C@@H](C)CO)C(=O)c2cccc(NC(=O)C3CCOCC3)c2O[C@@H]1CN(C)Cc1ccc(C(=O)O)cc1`, “inactive”.
On to `CS(=O)(=O)Nc1ccc2c(c1)[C@H]1C[C@@H](CC(=O)NCc3ccc(-c4ccccc4)cc3)O[C@H](CO)[C@H]1O2`, for which the growth inhibition call is “inactive”.
Next, `C[C@@H]1CN([C@H](C)CO)C(=O)c2cc(NC(=O)Nc3ccc(F)cc3)ccc2O[C@@H](C)CCCCO[C@@H]1CN(C)C(=O)NC1CCCCC1`: “inactive”; `C[C@@H]1CCCCO[C@@H](CN(C)Cc2ccc(Cl)c(Cl)c2)[C@@H](C)CN([C@H](C)CO)C(=O)c2cc(NC(=O)C3CCCCC3)ccc2O1`: “inactive”; `Cc1noc(C)c1NC(=O)N(C)C[C@H]1Oc2ccc(NC(=O)C3CC3)cc2C(=O)N([C@H](C)CO)C[C@H]1C`: “inactive”.
With `C[C@H]1CN([C@@H](C)CO)S(=O)(=O)c2ccc(C#Cc3ccc(F)cc3)cc2O[C@@H]1CN(C)S(=O)(=O)c1cn(C)cn1` the entry was “inactive”; with `O=C(C[C@@H]1CC[C@@H]2[C@H](COC[C@H](O)CN2S(=O)(=O)c2cccc(Cl)c2)O1)NCc1ccncn1`, “inactive”.
Next, `COc1ccc(NC(=O)Nc2ccc3c(c2)C(=O)N([C@H](C)CO)C[C@@H](C)[C@@H](CN(C)S(=O)(=O)c2ccc(F)cc2)OCCCC[C@@H](C)O3)cc1`: “inactive”.
With `O=C1CC[C@@H](C(=O)N2CSC[C@H]2C(=O)O)N1`, the growth inhibition call was “inactive”.
Consider `C[C@H](CO)N1C[C@H](C)[C@@H](CN(C)Cc2ccc(-c3ccccc3)cc2)Oc2c(NS(=O)(=O)c3cccs3)cccc2C1=O`, for which the growth inhibition call was “inactive”.
Take `C[C@@H]1CN([C@@H](C)CO)C(=O)c2cc(C#CC3(O)CCCC3)cnc2O[C@@H]1CN(C)C(=O)Nc1ccc2c(c1)OCO2`: the growth inhibition call was “inactive”.
For `C[C@@H]1CN([C@@H](C)CO)S(=O)(=O)c2ccc(C#Cc3ccccc3)cc2O[C@@H]1CN(C)S(C)(=O)=O`, the growth inhibition call is “inactive”.
In the case of `C[C@@H]1CN([C@@H](C)CO)C(=O)c2cc(-c3cccnc3)cnc2O[C@@H]1CN(C)C(=O)Nc1ccc2c(c1)OCO2`, the growth inhibition call is “inactive”.
With `CC(C)NC(=O)Nc1ccc2c(c1)C(=O)N([C@H](C)CO)C[C@H](C)[C@@H](CN(C)Cc1ccc3c(c1)OCO3)O2` the entry was “inactive”; with `CCC(=O)N1C[C@]2(CN(C2)C(=O)CN2CCOCC2)c2c([nH]c3cc(ccc23)OC)[C@H]1CO`, “inactive”; with `C[C@H]1CN([C@@H](C)CO)C(=O)Cc2cc(NC(=O)c3ccncc3)ccc2O[C@@H]1CN(C)C(=O)Nc1ccc2c(c1)OCO2`, “inactive”.
For the compound `C[C@@H]1CCCCO[C@@H](CN(C)CC2CC2)[C@H](C)CN([C@H](C)CO)C(=O)c2cc(NS(C)(=O)=O)ccc2O1`, the growth inhibition call was “inactive”.
With `C[C@@H]1CN([C@@H](C)CO)C(=O)c2cc(-c3cccc(C(=O)N(C)C)c3)cnc2O[C@H]1CN(C)C(=O)Cc1ccccn1` the entry was “inactive”; with `C[C@H]1CN([C@@H](C)CO)C(=O)c2cc(NC(=O)C3CC3)ccc2O[C@@H]1CN(C)Cc1ccc(-c2ccccc2)cc1`, “inactive”.
Turning to `COc1ccc(CN(C)C[C@H]2Oc3ccc(NS(C)(=O)=O)cc3CC(=O)N([C@H](C)CO)C[C@H]2C)cc1`, the growth inhibition call is “inactive”.
Next, `CC1(C)S[C@@H]2[C@H](NC(=O)C3(N)CCCCC3)C(=O)N2[C@H]1C(=O)O`: “active”; `CCCCC[C@H]1C[C@H](O[C@H]2O[C@@H](CO)[C@@H](O)[C@@H](O)[C@@H]2O)CC(=O)O1`: “inactive”.
For `COc1ccc(NC(=O)Nc2ccc3c(c2)C(=O)N([C@@H](C)CO)C[C@@H](C)[C@@H](CN(C)C(=O)NC2CCCCC2)OCCCC[C@H](C)O3)cc1`, the growth inhibition call was “inactive”.
Next, `Cc1cc(-c2ccccc2)nnc1NCCN1CCOCC1.Cl.Cl`: “inactive”; `C[C@@H]1CN([C@H](C)CO)C(=O)c2cc(C#CCN(C)C)cnc2O[C@@H]1CN(C)C(=O)c1cnccn1`: “inactive”; `C[C@H]1CN([C@@H](C)CO)C(=O)Cc2cc(NC(=O)Nc3ccc(C(F)(F)F)cc3)ccc2O[C@H]1CN(C)Cc1ccccc1`: “inactive”.
Next, `Cc1noc(C)c1S(=O)(=O)Nc1ccc2c(c1)CC(=O)N([C@@H](C)CO)C[C@H](C)[C@H](CN(C)S(=O)(=O)c1ccccc1)O2`: “inactive”; `CN(C)C(=O)c1cc2c(c(-c3cccc(/C=C/c4ccccc4)c3)n1)[C@H](CCO)N([S@@](=O)C(C)(C)C)C2`: “inactive”.
